{
  "source": "patent US20060240417A1",
  "about": "“Agent controlling the apoptosis induction by p73” (Hisamitsu Pharmaceutical Co., Inc., priority 2002, published 2006)",
  "test_system": "SH-SY5Y cells",
  "assay": "MTT survival assay of cisplatin-treated cells",
  "settings": "cisplatin 0, 5, 10 and 25 μM, 24 hours",
  "data": [
    {"smiles": "N.N.[Cl][Pt][Cl]", "note": "[cisplatin]", "values": [
      {"measurement": "surviving cell count by MTT assay", "value": "reduction in surviving cells which was dependent on cisplatin dose"}
    ]}
  ]
}
